Patent publication US20230053563A1

Biological target: OT-I TCR (mouse)
Test: cell-based or functional assay
Conditions: scale: orders of magnitude higher potency than T5-IL2M6

B1: T4-IL2M6 (Fc fusion)
chain: SIINFEKLGCGGSGGGGSGGGGSIQKTPQIQVYSRHPPENGKPNILNCYVTQFHPPHIEIQMLKNGKKIPKVEMSDMSFSKDWSFYILAHTEFTPTETDTYACRVKHASMAEPKTVYWDRDMGGGGSGGGGSGGGGSGGGGSGPHSLRYFVTAVSRPGLGEPRYMEVGYVDDTEFVRFDSDAENPRYEPRARWMEQEGPEYWERETQKAKGNEQSFRVDLRTLLGCYNQSKGGSHTIQVISGCEVGSDGRLLRGYQQYAYDGCDYIALNEDLKTWTAADMAALITKHKWEQAGEAERLRAYLEGTCVEWLRRYLKNGNATLLRTDSPKAHVTHHSRPEDKVTLRCWALGFYPADITLTWQLNGEELIQDMELVETRPAGDGTFQKWASVVVPLGKEQYYTCHVYHQGLPEPLTLRWEPPPSTVSNMAGGGGSGGGGSGGGGSGGGGSESKYGPPCPPCPAPPVAGPSVFLFPPKPKDTLMISRTPEVTCVVVDVSQEDPEVQFNWYVDGVEVHNAKTKPREEQFNSTYRVVSVLTVLHQDWLNGKEYKCKVSNKGLPSSIEKTISKAKGQPREPQVYTLPPSQEEMTKNQVSLTCLVKGFYPSDIAVEWESNGQPENNYKTTPPVLDSDGSFFLYSRLTVDKSRWQEGNVFSCSVMHEALHNHYTQKSLSLSLGKGGGGSGGGGSGGGGS[sequence of about 150 residues omitted]
Which potency in inducing STAT5 phosphorylation in gated CD8+ T cells of OT-I splenocytes, against T5-IL2M6 does the source give for B1 here?
Its potency in inducing STAT5 phosphorylation in gated CD8+ T cells of OT-I splenocytes, against T5-IL2M6 is 2.
